PubChem BioAssay AID1347165 (National Center for Advancing Translational Sciences (NCATS), 2019)
Screen size: about 220,000 compounds; about 5,700 (2.6%) were called active. The inconclusive results got no clear call from the source; some entries with a clear call stand among them for comparison. The call rests on the fitted dose curve; in most records, active means well fitted inhibition curve with a large enough effect; inconclusive means small, poorly fitted or top-dose-only effect; inactive means no such curve, though single readings can be large or run the other way. A potency beside an inconclusive call is a rough fit, not a confirmed value.

Molecular target: Lysine-specific demethylase 5B (Homo sapiens) (UniProt Q9UGL1)
Sequence of UniProt Q9UGL1 (Q9UGL1 whole entry, looked up): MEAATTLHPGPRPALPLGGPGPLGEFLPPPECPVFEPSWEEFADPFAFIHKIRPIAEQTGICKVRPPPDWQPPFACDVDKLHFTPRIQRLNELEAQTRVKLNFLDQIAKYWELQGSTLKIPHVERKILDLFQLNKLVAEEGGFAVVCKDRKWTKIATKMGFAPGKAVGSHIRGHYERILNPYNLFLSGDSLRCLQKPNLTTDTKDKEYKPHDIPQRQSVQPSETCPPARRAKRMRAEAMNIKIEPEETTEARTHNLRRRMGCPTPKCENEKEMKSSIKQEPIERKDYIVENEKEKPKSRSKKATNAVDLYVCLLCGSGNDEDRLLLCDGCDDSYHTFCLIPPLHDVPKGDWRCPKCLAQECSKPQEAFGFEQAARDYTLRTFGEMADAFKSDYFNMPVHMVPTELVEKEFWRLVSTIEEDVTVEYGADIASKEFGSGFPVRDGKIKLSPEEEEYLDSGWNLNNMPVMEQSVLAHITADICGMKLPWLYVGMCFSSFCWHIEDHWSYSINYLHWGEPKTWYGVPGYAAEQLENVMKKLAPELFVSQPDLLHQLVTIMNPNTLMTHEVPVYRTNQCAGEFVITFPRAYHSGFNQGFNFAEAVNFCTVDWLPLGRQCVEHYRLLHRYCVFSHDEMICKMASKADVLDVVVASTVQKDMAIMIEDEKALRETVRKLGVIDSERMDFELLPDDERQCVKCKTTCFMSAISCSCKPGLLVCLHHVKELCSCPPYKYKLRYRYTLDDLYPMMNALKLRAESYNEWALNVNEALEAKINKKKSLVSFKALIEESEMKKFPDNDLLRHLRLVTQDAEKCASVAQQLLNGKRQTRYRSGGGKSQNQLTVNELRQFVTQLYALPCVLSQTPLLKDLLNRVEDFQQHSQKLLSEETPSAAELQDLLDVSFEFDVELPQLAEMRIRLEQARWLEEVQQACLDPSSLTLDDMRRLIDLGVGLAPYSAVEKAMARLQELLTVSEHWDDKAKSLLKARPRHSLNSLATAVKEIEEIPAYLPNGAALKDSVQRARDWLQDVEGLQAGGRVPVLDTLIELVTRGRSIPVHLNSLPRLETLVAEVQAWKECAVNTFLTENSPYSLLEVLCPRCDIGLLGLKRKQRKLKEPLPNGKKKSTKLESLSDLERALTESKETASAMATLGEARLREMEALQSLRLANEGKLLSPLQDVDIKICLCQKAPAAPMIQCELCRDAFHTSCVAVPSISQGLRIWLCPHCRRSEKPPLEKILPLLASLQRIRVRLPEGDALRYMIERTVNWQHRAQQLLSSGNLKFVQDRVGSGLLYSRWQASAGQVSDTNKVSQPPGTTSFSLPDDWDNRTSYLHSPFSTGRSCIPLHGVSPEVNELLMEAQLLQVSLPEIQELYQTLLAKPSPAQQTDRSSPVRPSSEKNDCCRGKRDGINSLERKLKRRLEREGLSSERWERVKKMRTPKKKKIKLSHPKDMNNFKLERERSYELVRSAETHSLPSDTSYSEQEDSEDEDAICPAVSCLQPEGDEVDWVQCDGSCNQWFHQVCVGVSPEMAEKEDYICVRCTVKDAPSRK
Assay: Primary screen for KDM5B Histone Demethylases FDH-coupled qHTS; further: nearly all actives have a fitted effect of over 70% in size; on activity change, negative = inhibition: 0% is about no effect
Settings: FDH-coupled NADH fluorescence (FDH is formaldehyde dehydrogenase); activity change, negative = inhibition: at 57.7 µM (top of the series) unless noted
How it was run: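 Compound dilutions met 200 nM (final) KDM5BΔAP for 10 min at room temperature before substrate addition. The substrate mix held 12.5 µM H3K4me3 with cofactors 25 µM α-ketoglutarate and 50 µM Fe²⁺. NADH signal gain over 30 min defined activity.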
Potency means the concentration at half of the fitted maximal effect; tags describe the fitted curve by direction and shape.

| Compound | Potency | activity change, negative = inhibition |
| --- | --- | --- |
| CS(=O)(=O)N1CCc2ccc(C(=O)NCCN3CCc4ccccc4C3)cc21 | active: 28.2 µM |  |
| O=C(CN1C(=O)NC2(CCc3ccccc32)C1=O)Nc1ccccc1Cl (stereo unspecified) |  | inactive: 16.4% |
| COCCOc1ccc2c(n1)CCN(C(=O)Cc1ccccc1)C2 |  | inactive: -1.68% |
| CN(C)c1ccc(C(=O)Nc2sc(Nc3ccccc3)nc2C(N)=O)cc1 | inconclusive: 31.6 µM [inhibitor, partial curve, poor fit] |  |
| CCNc1ncc(CN2CCN(c3cccc(C(F)(F)F)c3)CC2)cn1 | inconclusive: 31.6 µM [inhibitor, single point] |  |
| COCCCNC(=O)Cc1cccn1-c1ccc(F)cc1 |  | inactive: -13.9% |
| Cc1[nH]c(SCC(=O)Nc2cccc(S(=O)(=O)N3CCCC3)c2)nc1Cc1ccccc1 |  | inactive: -10% |
| O=C(c1ccc2ccccc2n1)N1CCC(N2CC3CC(C2)[C@H]2CCCC(=O)N2C3)CC1 (stereo partly specified) | inconclusive: 14.1 µM [inhibitor, partial curve] |  |
| Cc1cccc(CN2CCCOCCNC(=O)CC2)c1 | inconclusive: 28.2 µM [inhibitor, single point] |  |
| CCCN(Cc1cccs1)C(=O)Nc1cc(Cl)ccc1OC |  | inactive: -3.05% |
| Cc1ccc(CN2CCC(CNC(=O)Nc3ccccc3F)CC2)cc1 | inconclusive: 11.2 µM [inhibitor, partial curve, poor fit] |  |
| CN(C)c1ccc(CN2CCNc3cnc(-c4ccccc4)cc3C2)cc1 | inconclusive: 31.6 µM [inhibitor, single point] |  |
| COCCNc1nc2c(S(=O)(=O)c3ccccc3)nnn2c2ccc(Cl)cc12 |  | inconclusive: -39.7% [inhibitor] |
| O=C(COc1ccc(Cl)cc1)NCCc1csc(-c2ccc(C(F)(F)F)cc2)n1 | inconclusive: 22.4 µM [inhibitor, partial curve, poor fit] |  |
| COc1ccc(NC(=O)c2sc3nc(C)c(C(=O)Nc4ccc(C)cc4C)c(-c4sccc4C)c3c2N)cc1 | inconclusive: 39.8 µM [inhibitor, single point] |  |
| NC(=O)/C(=C/c1ccco1)C(N)=S | inconclusive: 28.2 µM [inhibitor, single point] |  |
| CC1=C[C@@H](CN2CCN(c3ccccn3)CC2)[C@H](C(C)C)C[C@H]1Cc1nnc(-c2ccc(C)cc2)o1 | inconclusive: 31.6 µM [inhibitor, single point] |  |
| CCc1c(CN2CCN(c3ccc(F)cc3)CC2)csc1C | inconclusive: 44.7 µM [inhibitor, single point] |  |
| COc1ccc(Cn2c(SCc3ccc(C(=O)NC4CCCCC4)cc3)nc3cccnc32)cc1 | inconclusive: 39.8 µM [inhibitor, single point] |  |
| COc1ccc(Nc2ncnc3scc(-c4ccc(F)cc4)c23)cc1 | inconclusive: 35.5 µM [inhibitor, partial curve, poor fit] |  |
| O=C(CCl)NNC(=O)c1c(O)c2ccccc2[nH]c1=O | inconclusive: 31.6 µM [inhibitor, partial curve, poor fit] |  |
| COc1ccccc1CNc1oc(-c2ccc(C)cc2)nc1C#N | inconclusive: 14.1 µM [inhibitor, partial curve, poor fit] |  |

| Compound | Potency | activity change, negative = inhibition |
| --- | --- | --- |
| CN(CC(=O)Nc1cccc(F)c1)C(=O)Cc1csc(-c2ccccc2)n1 |  | inactive: 12.1% |
| CC(C)n1nc(C(=O)NCc2ccc3c(c2)OCO3)c2ccccc2c1=O |  | inactive: -18.9% |
| C[S+](=O)([O-])N1CC2(CCN(C(=O)CCC(=O)O)C2)Cc2ccccc21 (stereo unspecified) | active: 39.8 µM |  |
| COCCCNC(=O)Cn1c(=O)n(-c2ccccc2)c(=O)c2c1c1cc(OC)ccc1n2C | inconclusive: 3.16 µM [inhibitor, full curve, poor fit] |  |
| Cc1cc(=O)oc2cc(OCC(=O)NCCN3CCOCC3)c(Cl)cc12 | inconclusive: 39.8 µM [inhibitor, single point] |  |
| COC[C@@H]1CN(C(=O)c2cccc3[nH]ccc23)C[C@H]1c1nc(C)no1 | active: 20 µM |  |
| CCOC(=O)C1CCN(C(=O)c2cccnc2Oc2ccccc2)CC1 | inconclusive: 39.8 µM [inhibitor, single point] |  |
| COCCNC(=O)c1cc(Br)cn2ccnc12 | active: 39.8 µM |  |
| CS(=O)(=O)Nc1ccc(C2(C(=O)NCc3ccc(F)cc3)CCCCC2)cc1 |  | inactive: -13.1% |
| N#CCSc1ccccc1C(=O)Nc1ccc2c(c1)CCC2 |  | inactive: 5.18% |
| COCCN1CCN(C(=O)[C@@H]2Cc3cn(C)c4cccc(c34)[C@H](CC(C)C)N2)CC1 | inconclusive: 35.5 µM [inhibitor, partial curve, poor fit] |  |
| COc1ccc(-n2c(=O)c3ccc(C(=O)NCc4ccc(C)cc4)cc3n(CC(=O)Nc3cccc(F)c3)c2=O)cc1 | inconclusive: 31.6 µM [inhibitor, partial curve, poor fit] |  |
| COc1cc(/C=C/c2cc(C(=O)O)c3ccccc3n2)ccc1OC(F)F | inconclusive: 22.4 µM [inhibitor, partial curve, poor fit] |  |
| Cc1ccccc1-c1cnc2n[nH]c(-c3ccccc3)c2n1 | active: 31.6 µM |  |
| Cc1cc(C)c2nc(-c3ccc(Cl)s3)cc(C(=O)O)c2c1 | inconclusive: 8.91 µM [inhibitor, full curve, poor fit] |  |
| CCN1c2cc(C(=O)N3CCN(c4ccc(C)cc4)CC3)ccc2C(=O)N2CCCCC21 (stereo unspecified) | inconclusive: 17.8 µM [inhibitor, partial curve, poor fit] |  |
| O=[S+]1([O-])NCC2(CCN(CC3CCCCC3)CC2)Oc2ncccc21 | inconclusive: 56.2 µM [inhibitor, partial curve, poor fit] |  |
| CN1CCOc2c(C(=O)NCc3cccnc3)cc(-c3ccccc3O)cc21 | active: 31.6 µM |  |
| COc1cccc(-c2cn3c(n2)N(C(=O)Cc2cccs2)CCC3)c1 | inconclusive: 25.1 µM [inhibitor, single point] |  |
| O=C(CC[C@H]1NC(=O)c2ccccc2NC1=O)NCCn1c(=O)c(=O)[nH]c2ccccc21 | inconclusive: 25.1 µM [inhibitor, partial curve, poor fit] |  |
| CC(C)(C)CC(=O)N1CC[C@H]2NC(=O)N(c3ccc(Oc4ccccc4)cc3)C(=O)[C@H]21 |  | inactive: -19.1% [at 86.2 µM] |
| CC(Oc1ccc(Cl)cc1)C(=O)NCc1nnc2ccc(-c3ccccc3)nn12 (stereo unspecified) | inconclusive: 28.2 µM [inhibitor, single point] |  |

| Compound | Potency | activity change, negative = inhibition |
| --- | --- | --- |
| CSc1ccc(CN2CCN(Cc3ccccc3F)C(CCO)C2)cc1 (stereo unspecified) | inconclusive: 31.6 µM [inhibitor, single point] |  |
| C[S+](=O)([O-])Nc1cccc(Nc2ncc(-c3cccc(F)c3)c3c2OCC3)c1 | inconclusive: 28.2 µM [inhibitor, partial curve, poor fit] |  |
| CCCN(CCC)CCNC(=O)CS(=O)Cc1nc(-c2ccc(OC)c(OC)c2)oc1C (stereo unspecified) | inconclusive: 22.4 µM [inhibitor, single point] |  |
| COc1cc(C)c2c(c1C)C[C@H](C(C)C(=O)N1CCN(c3ccc(F)cc3)CC1)CC2 (stereo partly specified) | inconclusive: 35.5 µM [inhibitor, single point] |  |
| CCOC(=O)c1cc(-c2ccc(S(=O)(=O)Nc3ccc(F)c(Cl)c3)s2)on1 |  | inactive: 7.44% |
| CC(OC(=O)c1ccc2c(c1)NC(=O)CS2)C(=O)NC1CCCC1 (stereo unspecified) |  | inactive: 26.1% |
| COCCNC(=O)c1cc(-c2ccc(OC)cc2)nc2c1c(C1CCCN1)nn2C (stereo unspecified) | active: 79.4 µM |  |
| CCN(CC)C(=O)C(NC(=O)c1cccs1)C1CCN(C(=O)c2cccc(F)c2)CC1 (stereo unspecified) | inconclusive: 31.6 µM [inhibitor, partial curve, poor fit] |  |
| O=C1CCCC2=C1C(c1ccc(Cl)c(Cl)c1)n1nnnc1N2 (stereo unspecified) |  | inactive: -0.187% |
| CCS(=O)(=O)Nc1ccc(N2CCN(c3cccc(C(F)(F)F)c3)CC2)c(C(=O)O)c1 |  | inactive: 14% |
| COC(=O)c1ccc(NC(=O)CC2C(=O)N(c3cccc(F)c3)C(=O)N2CC(C)C)cc1 (stereo unspecified) |  | inconclusive: -33.5% [inhibitor] |
| COc1cc(Br)c(C2CC(=O)NC(C)=C2C(=O)OCc2ccc(C)cc2)cc1OC (stereo unspecified) |  | inactive: 2.54% |
| CCn1c(=O)c(=O)n(CC)c2cc(N3CCCCC3)c(NC(=O)c3ccc(OC)c(OC)c3)cc21 |  | inactive: 5.61% |
| Cc1nc(N2CCOCC2)ncc1-c1cc(=O)[nH]c(Nc2cccc(C(F)(F)F)c2)n1 | inconclusive: 28.2 µM [inhibitor, single point] |  |
| Cc1[nH]nc(CCC(=O)N2CCC3(CCCN(CC(C)(C)C)C3)C2)c1C (stereo unspecified) | inconclusive: 15.8 µM [inhibitor, partial curve, poor fit] |  |
| CN(C)C[C@@H]1CN(c2ncccn2)C[C@H]1NC(=O)c1cc(Cl)ccc1F | active: 31.6 µM |  |
| CCc1ccc(S(=O)(=O)NCc2cccn2Cc2cccc(C)c2)cc1 | inconclusive: 17.8 µM [inhibitor, partial curve, poor fit] |  |
| CCCNC(=O)N1CCC(Oc2ncccc2C(=O)N(C)C)C1 (stereo unspecified) |  | inactive: 5.65% |
| CC1=C(C(=O)Nc2ccccc2)C(c2cccc(Br)c2)NC(=S)N1 (stereo unspecified) | inconclusive: 14.1 µM [inhibitor, partial curve, poor fit] |  |
| O=C(Nc1nc(-c2ccc(S(=O)(=O)N3CCCCC3)cc2)cs1)c1ccco1 | inconclusive: 28.2 µM [inhibitor, single point] |  |
| Cc1cc(C)cc(C(=O)N2CCCN(c3cc(-c4ccc(Cl)cc4)[nH]n3)CC2)c1 | inconclusive: 12.6 µM [inhibitor, partial curve] |  |
| O=C1c2c(nc(COc3cccc(Cl)c3)n2Cc2ccccc2)NCCN1CCOc1ccccc1 | inconclusive: 31.6 µM [inhibitor, single point] |  |
